In the supplement of paper PMC10126150:
Sequences with one replicate were seen in a single cluster, so their values are uncertain.

Tested on: ATP
Assay: switch fluorescence ratio, 500 uM ATP over buffer (Cy3 cluster intensity, sum of 5 cycles each) (fold (ratio)); higher = stronger signal-on switching upon ATP binding; sequences stand for … in TCGTCGGCAGCGTCAGATGTGTATAAGAGACAGTTTTTTTTTTTTTTTTTTTTTTTTT…TC
Conditions: aptamer strand: ATP DNA aptamer (quencher-CACCTGGGGGAGTATTGCGGAGGAAGG + anchor), 100 nM annealed; ATP concentration: 500 uM; one replicate
Method in brief: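 Cy3-labelled switching-strand clusters on a modified Illumina MiSeq flow-cell were annealed to 100 nM quencher-labelled ATP aptamer, imaged in selection buffer, then imaged after 15 min with 500 uM ATP at 22 °C. Five buffer/ATP cycles ran, with NaOH stripping and re-annealing between them. The fluorescence ratio is summed target-cycle over summed buffer-cycle Cy3 intensity per cluster, averaged per switch-domain sequence. Clusters outside 100-1000 RFU were excluded.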
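Also: ATP exposure 15 min at 22 °C before imaging.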

Row | Sequence | switch fluorescence ratio
1 | GCGTGGGGCT | 1.01
2 | AAGTGCGTTG | 0.969
3 | CCATATTCTA | 1.02
4 | AGACACTTAG | 1
5 | GATTAACCTC | 1.04
6 | AGGATCGGCC | 1.02
7 | TAGCACTACA | 1.17
8 | ATCACGGGGT | 0.998
9 | ACTCTCAGCT | 1.08
10 | TCCAGTCGCT | 1.1
11 | TCGCGTCTAA | 1
12 | CCAGACACGC | 1.09
13 | TAGCGGCTA | 0.99
14 | TCCAACAGTG | 2.06
15 | AAATTGGATT | 1.02
16 | GAAAAGGTTG | 0.983
17 | AAGTACGCAT | 1.45
18 | AAAGCCTTCC | 2.94
19 | TTGCAATAGG | 0.991
20 | CTGAGCATCA | 1.16
21 | AGCAGGCTG | 0.974
22 | TCGGTAGTCC | 1.02
23 | TATCTAGATA | 0.98
24 | TATGGCTGG | 1.01
25 | ATTTCTTGGA | 0.954
26 | GCGCATAATT | 1.01

Row | Sequence | switch fluorescence ratio
27 | ATTGGATTTG | 1.01
28 | TGACACCAGG | 1.91
29 | GGTGGGTCG | 1.02
30 | ATCTTTATCT | 1.05
31 | CGTATCAACA | 1.01
32 | CCCCGACAT | 2.78
33 | ATAGTTACCG | 1.09
34 | CAACAGGGGA | 1.4
35 | CCCGCAGCGG | 1.14
36 | GGTTCATTCG | 1
37 | GGATTTGTAG | 0.978
38 | CGTAAACATT | 1.05
39 | GTTCTAGGAT | 0.985
40 | GCACGAGGGT | 0.972
41 | TGCTGCGATC | 1.64
42 | CCGTTTTGGG | 0.992
43 | GGTGGTCATT | 0.985
44 | TACGCTCTA | 1.04
45 | ATCTGGAAC | 1.05
46 | GGGACCGCG | 0.996
47 | CGAGTTTATC | 0.929
48 | CTGCGTTTTC | 1.1
49 | CAGAGGCG | 1.02
50 | TCCGGGCGCC | 1.04
51 | CTTAAGATGT | 0.984
52 | CCCTGTTC | 1.01

Row | Sequence | switch fluorescence ratio
53 | TAAGACCTA | 1.06
54 | AGGAGCTTAC | 2.17
55 | TTGGCCCTTT | 0.95
56 | TCGACATTGT | 0.99
57 | TAGTGCGATG | 0.959
58 | ACTTTATAGG | 1.02
59 | TCGAAACACG | 1.05
60 | GGTCTTGAAA | 0.96
61 | GGCTTACTGA | 1.02
62 | GTGTAGTTTC | 1
63 | AAGCATACAT | 1.03
64 | CGGGAAAGCT | 1.21
65 | AAGCTTGCT | 0.995
66 | GAAGTAAAGG | 0.99
67 | CGCGGTCAAT | 1.34
68 | ATTCGGGCGC | 1.05
69 | AAGCTGTTTG | 0.981
70 | TAGCCCCGGG | 1.04
71 | GCCTAATTAA | 1.03
72 | GGGGGACCA | 1
73 | TAATAGAGGA | 0.984
74 | TTAATAGAGA | 1.02
75 | TAAATAAGAA | 0.965
76 | GTAGGCCAGG | 1.01
77 | AACGGTGGGC | 1.01
78 | CATGGCCCAA | 1.01

Row | Sequence | switch fluorescence ratio
79 | CATAAATTAT | 0.977
80 | AACGGACAGA | 1.37
81 | TTCTGGAGGG | 0.957
82 | GAACCTCGCT | 1.03
83 | GGCTTCATTG | 1
84 | AATGAGGATG | 1.02
85 | AGTTAGTTGC | 0.999
86 | ATCAGAGG | 1.01
87 | GAAAATAAGG | 0.996
88 | GGTGTGGCT | 0.998
89 | GTTTTCTTTG | 0.978
90 | TGGGTCTTAT | 0.975
91 | TGTCATCTAG | 0.969
92 | GAATCCAAAG | 1.02
93 | ATGCCTACT | 1.02
94 | AGCGTTATGT | 1.01
95 | TCCTGGCACA | 1.33
96 | TTCGAAAACG | 0.998
97 | GCTTACCGGG | 1.05
98 | GCGGTTGAGA | 1.01
99 | CGGGGCCGTC | 0.925
100 | ACTTCCGGAA | 2.56
101 | TTTTGTCTC | 1.03
102 | CCGCCGATTG | 2.03
103 | TTGCGCCCGT | 1.06
104 | AATAGATTGG | 1.02

Row | Sequence | switch fluorescence ratio
105 | CCTCTTGGTC | 1.16
106 | CAGGGGCCGT | 1
107 | CGTGCCCACT | 1.02
108 | AAGGTAGTTC | 1.04
109 | ATCTTGTATG | 0.956
110 | AATGCACGGG | 1.19
111 | ACAGGAACTC | 1.02
112 | GCCACGGTTT | 1.01
113 | TGGTGACGGC | 1.12
114 | TACAACGAGA | 1.03
115 | GGATCAGCTT | 1.01
116 | GTGGCGTGAG | 0.974
117 | AGAAAACGTG | 0.975
118 | AATGATTATT | 1.02
119 | GTGTTTTCTC | 1.02
120 | AAATGACTTT | 0.975
121 | AAACTAGCAG | 1.04
122 | CAAACCGTTT | 1.67
123 | CGCTAGCGGA | 1.01
124 | GTTGCGATCT | 0.922
125 | CAGCTGGTGC | 1.06
126 | CCTATACAAG | 1.02
127 | TGAAATTCGC | 1
128 | CCATGCAACG | 1.08
129 | CGACTTCTCC | 1.24
130 | ACTAGGGCGC | 0.952

Row | Sequence | switch fluorescence ratio
131 | GCCCACGCCG | 0.99
132 | TATTAGCTTG | 1.02
133 | TATTCCCGAG | 1
134 | AGAGGGTA | 0.983
135 | GGAAAACAGT | 1.03
136 | AAGCGGAGTA | 0.954
137 | AAGGGTGCGC | 1.02
138 | CTTAAGTGGT | 0.995
139 | GAGGGTTTAG | 1
140 | CGGCGCACTA | 1.79
141 | CCAGTTAAT | 1
142 | TATCTTAGGG | 1.02
143 | CCATGAACAA | 1.01
144 | GCTAATCAAA | 0.984
145 | GAACCGGGCG | 1.06
146 | GCGGCTATAT | 1.13
147 | TACCATGGGC | 0.971
148 | CTTGTCCTTA | 1.02
149 | AAAGCAGCTG | 0.989
150 | GGACGTGTCT | 1.01
151 | AGACAGAAAG | 0.998
152 | CAGCAGACGA | 2.6
153 | CTTGATGGTT | 0.966
154 | CTTTGGTTTG | 1
